From the supplement of paper PMC9588766
Where a name gives a salt, the structure may show the parent alone. The full ranking holds about 1,900 compounds; the median of “cell viability of compound + 1 nM pemigatinib relative to pemigatinib-only (DMSO) wells” is about 0.95, and the lowest 2% start at about 0.22. This is one part of the list.

Tested on: PDC-DUC18828
Test: cell viability of compound + 1 nM pemigatinib relative to pemigatinib-only (DMSO) wells (fraction); PDC-DUC18828 is a patient-derived cholangiocarcinoma cell line; higher = less growth inhibition
Conditions: first compound 1 µM; pemigatinib concentration 1 nM; 72 h
Experimental: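 Selleck Bioactive library screen in the patient-derived FGFR2 fusion-positive ICC cell line PDC-DUC18828 (500 cells/well). Each compound was tested at 1 uM with 1 nM pemigatinib, in triplicate, for 72 h. Viability was read by CellTiter-Glo and normalised to plate DMSO controls. Value is the paper's averaged normalised viability.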

Compound	cell viability
O=C1OC(CN2CCOCC2)CN1/N=C/c1ccc([N+](=O)[O-])o1 (stereo unspecified) [Furaltadone HCl] + CCN1C(=O)N(c2c(F)c(OC)cc(OC)c2F)Cc2cnc3[nH]c(CN4CCOCC4)cc3c21 [pemigatinib]	1.09
C[C@H](CCC(=O)NCCS(=O)(=O)O)[C@H]1CC[C@H]2[C@@H]3[C@@H](O)C[C@@H]4C[C@H](O)CC[C@]4(C)[C@H]3CC[C@]12C [Sodium Tauroursodeoxycholate (TUDC)] + CCN1C(=O)N(c2c(F)c(OC)cc(OC)c2F)Cc2cnc3[nH]c(CN4CCOCC4)cc3c21 [pemigatinib]	0.951
c1cn2cc(-c3ccc4cn[nH]c4c3)nc(Nc3ccc(N4CCOCC4)cc3)c2n1 + CCN1C(=O)N(c2c(F)c(OC)cc(OC)c2F)Cc2cnc3[nH]c(CN4CCOCC4)cc3c21 [pemigatinib]	0.78
O=C1CCC(N2C(=O)c3ccccc3C2=O)C(=O)N1 (stereo unspecified) [Thalidomide] + CCN1C(=O)N(c2c(F)c(OC)cc(OC)c2F)Cc2cnc3[nH]c(CN4CCOCC4)cc3c21 [pemigatinib]	1.02
CC1(C)S[C@@H]2[C@H](NC(=O)Cc3ccccc3)C(=O)N2[C@H]1C(=O)O [Penicillin G Sodium] + CCN1C(=O)N(c2c(F)c(OC)cc(OC)c2F)Cc2cnc3[nH]c(CN4CCOCC4)cc3c21 [pemigatinib]	0.921
CCCCc1nc(Cl)c(CO)n1Cc1ccc(-c2ccccc2-c2nnn[nH]2)cc1 [Losartan Potassium (DuP 753)] + CCN1C(=O)N(c2c(F)c(OC)cc(OC)c2F)Cc2cnc3[nH]c(CN4CCOCC4)cc3c21 [pemigatinib]	1.01
O=C(Nc1cccc2cccnc12)c1ccc(N2C(=O)[C@@H]3[C@H](C2=O)[C@@H]2C=C[C@H]3C2)cc1 [IWR-1-endo] + CCN1C(=O)N(c2c(F)c(OC)cc(OC)c2F)Cc2cnc3[nH]c(CN4CCOCC4)cc3c21 [pemigatinib]	0.713
C=CCn1c(=O)c2cnc(Nc3ccc(N4CCN(C)CC4)cc3)nc2n1-c1cccc(C(C)(C)O)n1 + CCN1C(=O)N(c2c(F)c(OC)cc(OC)c2F)Cc2cnc3[nH]c(CN4CCOCC4)cc3c21 [pemigatinib]	0.359
Clc1ccc(C(Cn2ccnc2)OCc2csc3c(Cl)cccc23)c(Cl)c1 (stereo unspecified) [Sertaconazole nitrate] + CCN1C(=O)N(c2c(F)c(OC)cc(OC)c2F)Cc2cnc3[nH]c(CN4CCOCC4)cc3c21 [pemigatinib]	0.798
CN1CCC(COc2cnc(-c3cccc(Cn4nc(-c5cccc(C#N)c5)ccc4=O)c3)nc2)CC1 + CCN1C(=O)N(c2c(F)c(OC)cc(OC)c2F)Cc2cnc3[nH]c(CN4CCOCC4)cc3c21 [pemigatinib]	1
COc1cc(CCC(C)=O)ccc1O [Vanillylacetone] + CCN1C(=O)N(c2c(F)c(OC)cc(OC)c2F)Cc2cnc3[nH]c(CN4CCOCC4)cc3c21 [pemigatinib]	0.921
O=NN(CCCl)C(=O)NC1CCCCC1 [Lomustine] + CCN1C(=O)N(c2c(F)c(OC)cc(OC)c2F)Cc2cnc3[nH]c(CN4CCOCC4)cc3c21 [pemigatinib]	0.922
COc1cnc(NS(=O)(=O)c2ccc(N)cc2)nc1 [Sulfameter] + CCN1C(=O)N(c2c(F)c(OC)cc(OC)c2F)Cc2cnc3[nH]c(CN4CCOCC4)cc3c21 [pemigatinib]	1.04
CCCCCCCCc1ccc(CCC(N)(CO)CO)cc1 [Fingolimod (FTY720) HCl] + CCN1C(=O)N(c2c(F)c(OC)cc(OC)c2F)Cc2cnc3[nH]c(CN4CCOCC4)cc3c21 [pemigatinib]	0.908
C[C@]12CC[C@@H]3c4ccc(O)cc4CC[C@H]3[C@@H]1CCC2=O [Estrone] + CCN1C(=O)N(c2c(F)c(OC)cc(OC)c2F)Cc2cnc3[nH]c(CN4CCOCC4)cc3c21 [pemigatinib]	1.01
COc1cc(C(=O)NC2CCCNC2)cc(OC)c1OC (stereo unspecified) [Troxipide] + CCN1C(=O)N(c2c(F)c(OC)cc(OC)c2F)Cc2cnc3[nH]c(CN4CCOCC4)cc3c21 [pemigatinib]	1.05
CN1CC2c3ccccc3Oc3ccc(Cl)cc3C2C1 (stereo unspecified) [Asenapine] + CCN1C(=O)N(c2c(F)c(OC)cc(OC)c2F)Cc2cnc3[nH]c(CN4CCOCC4)cc3c21 [pemigatinib]	0.984
CCCCNc1ncc2c(-c3ccc(CN4CCN(C)CC4)cc3)cn([C@H]3CC[C@H](O)CC3)c2n1 + CCN1C(=O)N(c2c(F)c(OC)cc(OC)c2F)Cc2cnc3[nH]c(CN4CCOCC4)cc3c21 [pemigatinib]	0.587

Compound	cell viability
COC1=C2C[C@@H](C)C[C@H](OC)[C@H](O)[C@@H](C)/C=C(\C)[C@H](OC(N)=O)[C@@H](OC)/C=C\C=C(/C)C(=O)NC(=CC1=O)C2=O [Geldanamycin] + CCN1C(=O)N(c2c(F)c(OC)cc(OC)c2F)Cc2cnc3[nH]c(CN4CCOCC4)cc3c21 [pemigatinib]	0.299
CNC(=O)Nc1ccc(-c2nc(N3CC4CCC(C3)O4)c3cnn(C4CCC5(CC4)OCCO5)c3n2)cc1 + CCN1C(=O)N(c2c(F)c(OC)cc(OC)c2F)Cc2cnc3[nH]c(CN4CCOCC4)cc3c21 [pemigatinib]	0.232
CCC(CC)CC1(C(=O)Nc2ccccc2SC(=O)C(C)C)CCCCC1 + CCN1C(=O)N(c2c(F)c(OC)cc(OC)c2F)Cc2cnc3[nH]c(CN4CCOCC4)cc3c21 [pemigatinib]	0.972
Cn1cc(-c2ccc3nnc(C(F)(F)c4ccc5ncccc5c4)n3n2)cn1 + CCN1C(=O)N(c2c(F)c(OC)cc(OC)c2F)Cc2cnc3[nH]c(CN4CCOCC4)cc3c21 [pemigatinib]	1.01
c1ccc2[nH]c(-c3cscn3)nc2c1 [Thiabendazole] + CCN1C(=O)N(c2c(F)c(OC)cc(OC)c2F)Cc2cnc3[nH]c(CN4CCOCC4)cc3c21 [pemigatinib]	0.973
CCCCCCCN(CC)CCCC(O)c1ccc(NS(C)(=O)=O)cc1 (stereo unspecified) [Ibutilide Fumarate] + CCN1C(=O)N(c2c(F)c(OC)cc(OC)c2F)Cc2cnc3[nH]c(CN4CCOCC4)cc3c21 [pemigatinib]	1.03
Cc1nnc(C(C)C)n1C1C[C@H]2CC[C@@H](C1)N2CC[C@H](NC(=O)C1CCC(F)(F)CC1)c1ccccc1 (stereo in doubt) [Maraviroc] + CCN1C(=O)N(c2c(F)c(OC)cc(OC)c2F)Cc2cnc3[nH]c(CN4CCOCC4)cc3c21 [pemigatinib]	0.999
Cn1c(=O)cc(N2CCC[C@@H](N)C2)n(Cc2ccccc2C#N)c1=O [Alogliptin] + CCN1C(=O)N(c2c(F)c(OC)cc(OC)c2F)Cc2cnc3[nH]c(CN4CCOCC4)cc3c21 [pemigatinib]	1.01
CC1(C)S[C@@H]2[C@H](NC(=O)[C@H](NC(=O)N3CCN(S(C)(=O)=O)C3=O)c3ccccc3)C(=O)N2[C@H]1C(=O)O [Mezlocillin Sodium] + CCN1C(=O)N(c2c(F)c(OC)cc(OC)c2F)Cc2cnc3[nH]c(CN4CCOCC4)cc3c21 [pemigatinib]	0.999
COc1cc(Nc2ncc(F)c(Nc3ccc4c(n3)N(COP(=O)(O)O)C(=O)C(C)(C)O4)n2)cc(OC)c1OC [Fostamatinib (R788)] + CCN1C(=O)N(c2c(F)c(OC)cc(OC)c2F)Cc2cnc3[nH]c(CN4CCOCC4)cc3c21 [pemigatinib]	0.794
COc1ccc(-c2cc(=O)c3c(O)cc(O[C@@H]4O[C@H](CO[C@@H]5O[C@@H](C)[C@H](O)[C@@H](O)[C@H]5O)[C@@H](O)[C@H](O)[C@H]4O)cc3o2)cc1O [Diosmin] + CCN1C(=O)N(c2c(F)c(OC)cc(OC)c2F)Cc2cnc3[nH]c(CN4CCOCC4)cc3c21 [pemigatinib]	0.966
O=S(=O)(O)CCS [Mesna] + CCN1C(=O)N(c2c(F)c(OC)cc(OC)c2F)Cc2cnc3[nH]c(CN4CCOCC4)cc3c21 [pemigatinib]	0.986
CCCS(=O)(=O)Nc1ccc(F)c(C(=O)c2c[nH]c3ncc(-c4ccc(Cl)cc4)cc23)c1F [Vemurafenib (PLX4032, RG7204)] + CCN1C(=O)N(c2c(F)c(OC)cc(OC)c2F)Cc2cnc3[nH]c(CN4CCOCC4)cc3c21 [pemigatinib]	0.955
Cc1cccc(-c2[nH]c(CNc3ccccc3F)nc2-c2ccc3ncnn3c2)n1 + CCN1C(=O)N(c2c(F)c(OC)cc(OC)c2F)Cc2cnc3[nH]c(CN4CCOCC4)cc3c21 [pemigatinib]	0.947
O=C(Nc1c(Cl)cncc1Cl)c1ccc(OC(F)F)c(OCC2CC2)c1 [Roflumilast] + CCN1C(=O)N(c2c(F)c(OC)cc(OC)c2F)Cc2cnc3[nH]c(CN4CCOCC4)cc3c21 [pemigatinib]	0.972
CCOC(=O)OC(C)OC1=C(C(=O)Nc2ccccn2)N(C)S(=O)(=O)c2ccccc21 (stereo unspecified) [Ampiroxicam] + CCN1C(=O)N(c2c(F)c(OC)cc(OC)c2F)Cc2cnc3[nH]c(CN4CCOCC4)cc3c21 [pemigatinib]	0.914
C[C@@H]1O[C@@H](O[C@H]2[C@H](Oc3cc(O)c(C(=O)CCc4ccc(O)cc4)c(O)c3)O[C@H](CO)[C@@H](O)[C@@H]2O)[C@H](O)[C@H](O)[C@H]1O [Naringin Dihydrochalcone] + CCN1C(=O)N(c2c(F)c(OC)cc(OC)c2F)Cc2cnc3[nH]c(CN4CCOCC4)cc3c21 [pemigatinib]	0.925
CCCCNC(=O)NS(=O)(=O)c1ccc(C)cc1 [Tolbutamide] + CCN1C(=O)N(c2c(F)c(OC)cc(OC)c2F)Cc2cnc3[nH]c(CN4CCOCC4)cc3c21 [pemigatinib]	0.926
